Test results reported in PubChem BioAssay AID686979 (National Center for Advancing Translational Sciences (NCATS), 2013).
Hit rate of the full screen: of about 420,000 compounds, about 50,000 (12%) were called active. The inconclusive results got no clear call from the source; some entries with a clear call stand among them for comparison. The call rests on the fitted dose curve; in most records, active means well fitted inhibition curve with a large enough effect; inconclusive means small, poorly fitted or top-dose-only effect; inactive means flat fitted curve, though single readings scatter. Potencies of inconclusive entries are left out as doubtful fits.

Test: qHTS for Inhibitors of human tyrosyl-DNA phosphodiesterase 1 (TDP1): qHTS in cells in presence of CPT; further: nearly all actives have a fitted effect of over 55% in size
Settings: chicken DT40 Tdp1-/-;hTDP1 cells + 20 nM CPT, ATP luminescence, 48 h; activity change, negative = growth inhibition: at 46.2 µM (top of the series) unless noted
Procedure, shortened: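 Chicken DT40 Tdp1-/- cells complemented with human TDP1, 400 cells/well, exposed to compounds plus 20 nM camptothecin for at least 48 h at 37 C; viability read as ATP content by CellTiter-Glo luminescence.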
On the % scale 0 is the no-effect control and ±100 the full control effect; potency means the concentration at half of the fitted maximal effect; tags describe the fitted curve by direction and shape.

For Cc1oc2ncn(C)c(=O)c2c1C(=O)N(Cc1ccccc1)C(C)C, which Potency is on record?
Its Potency is “inactive”.

Which Potency does the source give for Cc1cccc(OCc2nc(-c3ccc(-n4cccc4)cc3)no2)c1 here?
Its Potency is inconclusive [inhibitor, partial curve].

For Cc1ccc(C(=O)NC(=S)Nc2ccc(S(=O)(=O)N3CCN(C)CC3)cc2)cc1, which Potency is on record?
The Potency was active: 16.4 µM.

Which Potency does the source give for CCOc1cccc(/C=N/NC(=O)c2ccc3c(c2)OCCO3)c1O here?
Its Potency is active: 2.59 µM.

Which Potency does the source give for CCCCCCCCCCCC(=O)NC1CCS(=O)(=O)C1 (stereo not given) here?
The Potency was inconclusive [inhibitor, single point].

For CN1C2C=C3C(C#N)=C(N)C(C#N)(C#N)[C@@H](c4ccc(Cl)cc4)[C@@H]3C1CC2 (stereo not given in full), which Potency is on record?
The Potency was inconclusive [inhibitor, partial curve, poor fit].

With COc1ccccc1C(=O)N(CN1CCCC1=O)c1cccc(Cl)c1 as the compound, how does the Potency read?
The Potency was inconclusive [inhibitor, partial curve, poor fit].

Which Potency does the source give for CC(C)(C)OC(=O)NCc1ccc(CNC(=O)c2ncn(Cc3ccccc3)c2C(=O)NCc2ccc(CNC(=O)OC(C)(C)C)cc2)cc1 here?
The Potency was “inactive”.

With Cc1cc(C)nc(SCCC(=O)N(C)C)n1 as the compound, how does the Potency read?
The Potency was “inactive”.

With Cc1ccc(Cn2c(CO)cnc2SCc2cccc(F)c2)cc1 as the compound, how does the Potency read?
The Potency was inconclusive [inhibitor, single point].

With CCCCCCN1C[C@@H](O)[C@H](n2cc(COC(=O)c3ccccc3)nn2)C[C@@H]1c1ccccc1 as the compound, how does the Potency read?
Its Potency is inconclusive [inhibitor, single point].

Which Potency does the source give for O=C(Oc1c(Cl)cc(Cl)c2cccnc12)c1cccc([N+](=O)[O-])c1 here?
The Potency was active: 2.91 µM.

Which Potency does the source give for CC(C)NC(=O)COc1ncnc2sccc12 here?
The Potency was “inactive”.

Which Potency does the source give for O=C(N/N=C\c1ccccn1)c1ccccc1O here?
The Potency was active: 14.6 µM.

For COC(=O)C1=C/C=C\CN(C(c2ccccc2)c2ccccc2)/C=C\1C(=O)OC, which Potency is on record?
The Potency was inconclusive [inhibitor, single point].

For Cc1cccc(NC(=S)NCC23C=CC(O2)C2C(=O)N(c4ccc(Cl)cc4)C(=O)C23)c1 (stereo not given), which Potency is on record?
The Potency was inconclusive [inhibitor, single point].

With Cc1c(C)n(Cc2ccccc2)c2ncnc(N)c12 as the compound, how does the Potency read?
Its Potency is active: 14.6 µM.

With COc1ccc(N(C(=O)c2snc(C(N)=O)c2N)C(C(=O)NCC2CCCO2)c2ccc(C)o2)cc1OC (stereo not given) as the compound, how does the Potency read?
Its Potency is inconclusive [inhibitor, single point].

For CCOC(=O)c1cnc2c(C)cc(Cl)cc2c1N1CCN(C)CC1, which Potency is on record?
Its Potency is inconclusive [inhibitor, single point].

For Cc1ccc(Cl)cc1N1CCN(C(=O)CCn2c(=O)c3cccn3c3cccnc32)CC1, which Potency is on record?
Its Potency is active: 9.2 µM.

With CCOC(=O)c1c(C)[nH]c(CCC(=O)NCc2cccc(OC)c2)c1C as the compound, how does the Potency read?
Its Potency is inconclusive [inhibitor, single point].

For CN1CCN(c2ccc(NC(=O)COc3ccccc3[N+](=O)[O-])cc2)CC1, which Potency is on record?
Its Potency is “inactive”.

Which Potency does the source give for O=C(OCc1cn([C@H]2C[C@H](c3ccccc3)N(CC3CCCCC3)C[C@@H]2O)nn1)c1ccccc1 here?
The Potency was inconclusive [inhibitor, single point].

For CN1CCN(c2ccc(S(=O)(=O)N3CCCCC3)cc2NC(=O)COc2ccc(F)cc2)CC1, which Potency is on record?
The Potency was inconclusive [inhibitor, single point].

For O=C(c1cc(=O)[nH]c2ccccc12)N1CCN(S(=O)(=O)c2ccc(Cl)cc2)CC1, which Potency is on record?
The Potency was “inactive”.

With CCCN(CC(=O)Nc1ccccc1C)C(=O)c1ccc(Cl)c(S(=O)(=O)N2CCCC2)c1 as the compound, how does the Potency read?
Its Potency is inconclusive [inhibitor, single point].

For COC(=O)CCC(=O)Nc1sc2c(c1C#N)CCCC2, which Potency is on record?
The Potency was active: 4.61 µM.

Which Potency does the source give for C=CCn1c(SCC(=O)N(CC)C2CCS(=O)(=O)C2)nc2sc3c(c2c1=O)CCC3 (stereo not given) here?
The Potency was inconclusive [inhibitor, single point].

Which Potency does the source give for NC(=O)CC(NC(=O)c1cccc(Br)c1)c1ccc(N2CCC(Br)CC2)c([N+](=O)[O-])c1 (stereo not given) here?
The Potency was active: 20.6 µM.

With O=C(Nc1ccc(F)cc1)C(c1cc2ccccc2o1)N1CCN(C(=O)c2ccco2)CC1 (stereo not given) as the compound, how does the Potency read?
The Potency was “inactive”.

With Cc1oc2ccc(O)c(CN3CCCCC3C)c2c1C(=O)Nc1ccccc1 (stereo not given) as the compound, how does the Potency read?
Its Potency is inconclusive [inhibitor, single point].

For O=C(CCc1ccccc1)N1CCc2c([nH]c3ccccc23)C1c1ccc(Cl)cc1 (stereo not given), which Potency is on record?
Its Potency is active: 16.4 µM.

Which Potency does the source give for Cc1ccc(F)c(C(=O)N2CCCC(C)(C(=O)NS(=O)(=O)C3CC3)C2)c1F (stereo not given) here?
The Potency was active: 6.51 µM.

With CN(C)C=Nc1ccc2nc3c(cc2c1)[nH]c1ccccc13 as the compound, how does the Potency read?
The Potency was inconclusive [inhibitor, single point].

Which Potency does the source give for CCc1ccc2oc(-c3ccc(OC)cc3)cc(=Nc3cccc(C(=O)O)c3)c2c1 here?
Its Potency is inconclusive [inhibitor, single point].

With CCc1ccccc1NC(=O)CSc1nc2ncccc2o1 as the compound, how does the Potency read?
Its Potency is “inactive”.

Which Potency does the source give for CC(C)c1ccc(-c2cc(C(=O)N3CCOCC3)c3cc(Br)ccc3n2)cc1 here?
Its Potency is inconclusive [inhibitor, single point].

With Cc1ccc(-c2csc(NC(=O)C3=COCCO3)n2)cc1 as the compound, how does the Potency read?
Its Potency is inconclusive [inhibitor, full curve, poor fit].

For O=C(COC(=O)/C=C/c1ccc2c(c1)OCO2)NCc1ccc(F)cc1, which Potency is on record?
The Potency was active: 23.1 µM.

For CCOC(=O)C1=C(C)N(c2ccc(C)cc2)C(=O)/C1=C\c1ccc(O)c(OC)c1, which Potency is on record?
The Potency was active: 14.6 µM.

Which Potency does the source give for CCOc1ccc(CCN2C(=O)C(=O)N([C@@H](CC(C)C)CN3CCC[C@H]3CN3C(=O)C(=O)NC[C@@H]3CC(C)C)C[C@@H]2Cc2ccccc2)cc1 here?
Its Potency is inconclusive [inhibitor, single point].

With CC(C)(C)c1nc(NCCN2CCOCC2)c2nnn(Cc3ccccc3Cl)c2n1 as the compound, how does the Potency read?
Its Potency is active: 10 µM.

With COc1cc(CC(=O)OCC(=O)N2C(C)CCCC2C)cc(OC)c1OC (stereo not given) as the compound, how does the Potency read?
Its Potency is inconclusive [inhibitor, single point].

Which Potency does the source give for N=C1C(c2ccccc2)=C(O)CN1c1cccc(S(=O)(=O)N2CCOCC2)c1 here?
The Potency was inconclusive [inhibitor, single point].

Which Potency does the source give for CC(=O)NCCNc1ncnc2ccc(-c3ccccc3Cl)cc12 here?
Its Potency is “inactive”.

For Cc1cc(C)cc(NC(=S)NC(=O)Cc2ccccc2)c1, which Potency is on record?
The Potency was “inactive”.

With Cc1ccccc1OCC(O)CN1CCN(c2ccccn2)CC1 (stereo not given) as the compound, how does the Potency read?
Its Potency is “inactive”.

With Cc1ccc(-n2nc3ccc(N)cc3n2)cc1Cl as the compound, how does the activity change, negative = growth inhibition read?
Its activity change, negative = growth inhibition is inconclusive: -31% [inhibitor].

With S=C(NCc1ccccc1)NN1CCOCC1 as the compound, how does the Potency read?
The Potency was “inactive”.

For O=C(c1cccc(C(F)(F)F)c1)N1CCc2c([nH]c3ccccc23)C1C(F)(F)F (stereo not given), which Potency is on record?
Its Potency is inconclusive [inhibitor, partial curve].

For Cc1cc2c(cc3c(SCc4cccc(F)c4)nnc(C)n32)o1, which Potency is on record?
The Potency was inconclusive [inhibitor, single point].

Which Potency does the source give for CCOC(=O)C1=CN(Cc2ccco2)S(=O)(=O)NC1CC (stereo not given) here?
The Potency was “inactive”.

Which Potency does the source give for COc1ccc2c(=O)c(-c3ccccc3)coc2c1 here?
Its Potency is inconclusive [inhibitor, single point].

With O=S1(=O)N=C(N(CCO)/N=C/c2ccccc2F)c2ccccc21 as the compound, how does the Potency read?
Its Potency is inconclusive [inhibitor, partial curve].

For COc1cc(NC(=O)CN2C(=O)C(c3ccc(Cl)cc3)=NC23CCCCC3)cc(OC)c1, which Potency is on record?
Its Potency is inconclusive [inhibitor, single point].

Which Potency does the source give for CC(=O)c1ccc(NC(=O)CCCN2C(=O)/C(=C/C(C)=C/c3ccccc3)SC2=S)cc1 here?
The Potency was inconclusive [inhibitor, single point].

For CC(C)c1ccc(C2c3c(oc4ccc(Cl)cc4c3=O)C(=O)N2CCCN2CCOCC2)cc1 (stereo not given), which Potency is on record?
Its Potency is active: 18.4 µM.

With Cc1ccc(C2=CC(c3ccc(Cl)cc3)n3nc(-c4ccc(C)cc4)nc3N2)cc1 (stereo not given) as the compound, how does the Potency read?
Its Potency is active: 32.6 µM.

Which Potency does the source give for O=[N+]([O-])c1ccc(C2CC(c3ccccc3)=Nc3ccccc3S2)cc1 (stereo not given) here?
The Potency was inconclusive [inhibitor, single point].

For COCCN(C(=O)COc1ccc(Cl)cc1)c1nnc(-c2cccnc2)s1, which Potency is on record?
The Potency was “inactive”.

With Cc1cc(/C=C2\SC(=O)NC2=O)c(C)n1-c1ccc(N2CCOCC2)cc1 as the compound, how does the Potency read?
Its Potency is inconclusive [inhibitor, single point].

For O=[n+]1cc(-c2ccc(Br)cc2)n([O-])c2c1CCC2, which Potency is on record?
The Potency was inconclusive [inhibitor, single point].

With CCNc1ncc2nc(-c3cccs3)c(=O)n(-c3ccccc3)c2n1 as the compound, how does the Potency read?
Its Potency is “inactive”.

With O=c1c2c3c(sc2n(Cc2ccccc2F)c(=O)n1-c1ccc(Cl)cc1)CCCC3 as the compound, how does the Potency read?
Its Potency is “inactive”.

With Cc1ccc(Cn2cnc3c(cnn3C(C)(C)C)c2=O)cc1 as the compound, how does the Potency read?
The Potency was active: 25.9 µM.

Which Potency does the source give for COC(=O)c1ccc(Cl)cc1NC(=O)NC(C)c1c(-n2cccc2)sc(C)c1C (stereo not given) here?
Its Potency is inconclusive [inhibitor, single point].

Which Potency does the source give for CCn1c2ccccc2c2cc(NC(=O)COC(=O)c3cccc(S(=O)(=O)NC)c3)ccc21 here?
Its Potency is inconclusive [inhibitor, single point].

With CCOC(=O)[C@]12CCC=C1N(Cc1ccc3c(c1)OCO3)C(=O)[C@H](CC(=O)NCCC(C)C)C2 as the compound, how does the Potency read?
Its Potency is inconclusive [inhibitor, single point].

For O=C(Oc1ccccc1)N1CCC2(CC1)CCN(c1ccccn1)CC2, which Potency is on record?
The Potency was active: 16.4 µM.

With Cn1c(=O)c(/C=C/c2ccc(F)cc2)nc2ccccc21 as the compound, how does the Potency read?
The Potency was inconclusive [inhibitor, single point].
